The values below come from publication PMC7337490.

Chains of the proteins cited; added tags and fusions are not shown. Lines headed by an entry give the natural chain unless they say otherwise; changes in a name come on top. A line that says so, or that is headed by a name, gives the form on record, which may keep a tag or linker. Residues count along the entry.
UniProt O95235: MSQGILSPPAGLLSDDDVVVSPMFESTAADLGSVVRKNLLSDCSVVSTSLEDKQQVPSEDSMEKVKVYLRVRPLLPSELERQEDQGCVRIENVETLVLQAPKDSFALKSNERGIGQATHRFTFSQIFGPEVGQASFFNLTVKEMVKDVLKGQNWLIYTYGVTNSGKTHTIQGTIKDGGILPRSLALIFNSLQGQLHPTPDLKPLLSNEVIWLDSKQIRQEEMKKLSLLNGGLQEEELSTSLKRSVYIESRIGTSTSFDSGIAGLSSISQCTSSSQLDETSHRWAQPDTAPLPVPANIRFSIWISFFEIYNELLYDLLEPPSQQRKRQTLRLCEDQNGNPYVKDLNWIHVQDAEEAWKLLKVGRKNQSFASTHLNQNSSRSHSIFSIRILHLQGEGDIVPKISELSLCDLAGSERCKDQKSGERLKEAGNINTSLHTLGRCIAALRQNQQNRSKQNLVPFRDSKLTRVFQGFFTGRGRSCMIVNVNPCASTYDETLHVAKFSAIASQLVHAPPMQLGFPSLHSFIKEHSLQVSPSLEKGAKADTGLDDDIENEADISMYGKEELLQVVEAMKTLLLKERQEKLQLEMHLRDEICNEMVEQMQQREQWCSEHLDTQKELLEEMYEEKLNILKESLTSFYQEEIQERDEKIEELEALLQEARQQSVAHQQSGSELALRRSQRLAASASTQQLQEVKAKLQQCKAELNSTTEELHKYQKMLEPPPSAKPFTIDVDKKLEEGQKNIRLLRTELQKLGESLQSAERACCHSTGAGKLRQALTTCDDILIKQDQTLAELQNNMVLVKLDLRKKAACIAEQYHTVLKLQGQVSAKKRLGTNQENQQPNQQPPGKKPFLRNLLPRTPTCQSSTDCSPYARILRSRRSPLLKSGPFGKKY
GFP-MKLP2^535-718: residues 535-718 of O95235
MKLP2^557-668: residues 557-668 of O95235
GFP-MKLP2 RRSQR (penta-alanine substitution) mutant (O95235, form named): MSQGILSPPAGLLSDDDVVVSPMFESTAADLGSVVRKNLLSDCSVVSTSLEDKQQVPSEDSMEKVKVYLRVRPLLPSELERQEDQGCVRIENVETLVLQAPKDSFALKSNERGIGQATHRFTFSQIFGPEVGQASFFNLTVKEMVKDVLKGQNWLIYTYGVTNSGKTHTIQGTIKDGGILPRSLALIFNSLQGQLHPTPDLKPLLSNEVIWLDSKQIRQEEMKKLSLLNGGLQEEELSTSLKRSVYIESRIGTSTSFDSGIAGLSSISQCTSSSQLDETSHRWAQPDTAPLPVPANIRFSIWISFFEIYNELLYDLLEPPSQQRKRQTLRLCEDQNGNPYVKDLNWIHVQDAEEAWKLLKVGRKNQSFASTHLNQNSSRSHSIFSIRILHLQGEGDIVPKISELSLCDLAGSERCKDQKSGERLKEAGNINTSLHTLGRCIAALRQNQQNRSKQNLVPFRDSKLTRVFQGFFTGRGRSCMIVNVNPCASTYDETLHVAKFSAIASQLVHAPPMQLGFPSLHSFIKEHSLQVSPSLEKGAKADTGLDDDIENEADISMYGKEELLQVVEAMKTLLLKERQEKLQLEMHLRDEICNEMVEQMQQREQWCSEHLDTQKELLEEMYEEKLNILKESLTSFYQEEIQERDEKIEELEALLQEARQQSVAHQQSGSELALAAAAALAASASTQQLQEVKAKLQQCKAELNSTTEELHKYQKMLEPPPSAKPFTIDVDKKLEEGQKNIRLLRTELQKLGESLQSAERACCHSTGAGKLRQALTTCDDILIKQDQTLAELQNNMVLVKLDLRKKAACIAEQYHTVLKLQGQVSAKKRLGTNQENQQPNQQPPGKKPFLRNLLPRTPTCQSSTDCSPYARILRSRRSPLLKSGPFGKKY
GFP-MKLP2 Δ690-705 (O95235, form named): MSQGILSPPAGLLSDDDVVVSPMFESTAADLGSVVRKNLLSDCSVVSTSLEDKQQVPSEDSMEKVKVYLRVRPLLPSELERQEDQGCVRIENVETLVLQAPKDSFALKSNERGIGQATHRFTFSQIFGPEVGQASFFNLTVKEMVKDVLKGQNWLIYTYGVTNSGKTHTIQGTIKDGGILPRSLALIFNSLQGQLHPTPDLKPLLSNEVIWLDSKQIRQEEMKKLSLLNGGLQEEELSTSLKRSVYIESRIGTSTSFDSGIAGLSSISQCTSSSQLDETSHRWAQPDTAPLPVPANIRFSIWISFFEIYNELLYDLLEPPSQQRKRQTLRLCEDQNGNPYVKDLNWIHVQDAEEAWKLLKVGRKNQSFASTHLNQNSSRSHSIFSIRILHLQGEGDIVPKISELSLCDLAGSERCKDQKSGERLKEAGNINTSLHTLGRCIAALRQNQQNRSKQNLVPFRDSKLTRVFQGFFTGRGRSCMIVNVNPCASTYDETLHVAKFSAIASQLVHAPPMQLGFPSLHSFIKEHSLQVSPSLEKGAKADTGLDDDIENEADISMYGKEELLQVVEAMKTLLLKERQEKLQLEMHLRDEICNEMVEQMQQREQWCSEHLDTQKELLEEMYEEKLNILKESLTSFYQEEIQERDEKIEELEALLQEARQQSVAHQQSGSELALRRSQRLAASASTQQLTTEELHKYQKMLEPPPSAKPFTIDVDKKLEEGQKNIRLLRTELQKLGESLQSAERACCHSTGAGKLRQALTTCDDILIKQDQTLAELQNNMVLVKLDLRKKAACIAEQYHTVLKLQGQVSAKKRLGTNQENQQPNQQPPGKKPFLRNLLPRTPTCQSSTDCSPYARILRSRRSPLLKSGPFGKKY
GFP-MKLP2 Δ636-652 (O95235, form named): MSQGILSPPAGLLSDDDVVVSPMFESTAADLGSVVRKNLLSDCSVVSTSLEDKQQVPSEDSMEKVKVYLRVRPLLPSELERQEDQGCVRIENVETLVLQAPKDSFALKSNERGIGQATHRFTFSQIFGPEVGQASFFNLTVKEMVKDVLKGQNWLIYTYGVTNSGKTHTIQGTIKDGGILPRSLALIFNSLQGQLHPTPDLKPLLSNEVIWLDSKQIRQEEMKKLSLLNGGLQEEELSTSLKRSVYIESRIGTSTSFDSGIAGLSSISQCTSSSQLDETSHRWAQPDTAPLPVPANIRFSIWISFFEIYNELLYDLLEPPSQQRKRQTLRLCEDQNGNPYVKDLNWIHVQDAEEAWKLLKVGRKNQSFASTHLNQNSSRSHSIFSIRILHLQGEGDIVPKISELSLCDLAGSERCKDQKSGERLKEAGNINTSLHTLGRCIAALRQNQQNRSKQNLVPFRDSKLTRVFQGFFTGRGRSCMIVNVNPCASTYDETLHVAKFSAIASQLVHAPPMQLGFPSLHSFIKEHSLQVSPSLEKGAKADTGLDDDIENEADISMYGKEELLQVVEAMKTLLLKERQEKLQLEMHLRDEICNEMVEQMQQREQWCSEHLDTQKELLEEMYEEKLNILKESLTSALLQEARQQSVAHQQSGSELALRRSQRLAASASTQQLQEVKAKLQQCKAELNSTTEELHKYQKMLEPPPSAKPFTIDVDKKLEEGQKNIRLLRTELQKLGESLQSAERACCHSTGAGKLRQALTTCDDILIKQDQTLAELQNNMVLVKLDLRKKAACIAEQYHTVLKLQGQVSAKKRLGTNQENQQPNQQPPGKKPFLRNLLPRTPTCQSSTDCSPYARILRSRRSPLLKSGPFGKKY
UniProt O15392: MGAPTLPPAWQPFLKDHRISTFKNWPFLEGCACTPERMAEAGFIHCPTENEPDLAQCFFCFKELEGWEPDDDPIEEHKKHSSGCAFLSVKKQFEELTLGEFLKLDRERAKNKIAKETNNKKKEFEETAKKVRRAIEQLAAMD
UniProt Q96GD4: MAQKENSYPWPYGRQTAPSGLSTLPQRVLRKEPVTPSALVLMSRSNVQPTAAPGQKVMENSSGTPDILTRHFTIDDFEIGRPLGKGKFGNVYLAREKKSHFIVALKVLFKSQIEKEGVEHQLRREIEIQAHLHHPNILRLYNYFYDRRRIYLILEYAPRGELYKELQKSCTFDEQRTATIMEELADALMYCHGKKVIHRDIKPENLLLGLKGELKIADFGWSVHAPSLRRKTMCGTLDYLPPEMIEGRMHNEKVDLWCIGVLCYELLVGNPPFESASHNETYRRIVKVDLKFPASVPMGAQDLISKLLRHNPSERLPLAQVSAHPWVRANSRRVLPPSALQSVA

Numbering of substitutions follows the chain as printed. Results are given in words; binding and its absence hold for the method and conditions named. For some of these results: In cells and extracts the contact can be indirect. Some entries that bind do so weakly or less than the wild type. For some of these results: Tags and fused reporters may be left off the sequences shown.

Assay [1] addresses MKLP2^557-668 (human) (UniProt O95235). The assay can be described thus: SEC; CPC variants and MKLP2^557-668 mixed 1:1, 30 min on ice in 100 mM NaCl, 20 mM Tris-HCl pH 8.0, 1 mM DTT, 10% glycerol; analytical Superdex 200 increase 10/300 at 4°C; fractions on stained gels; both purified. For orientation: SEC sorts molecules by how far they enter the pores of the column.
Assay [2] addresses T1, GFP-INCENP 1–80 (human) (UniProt Q9NQS7).
T1 sequence: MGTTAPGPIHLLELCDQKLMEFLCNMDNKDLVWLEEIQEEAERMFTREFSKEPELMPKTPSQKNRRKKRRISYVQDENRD
The assay can be described thus: co-IP; anti-GFP IP of GFP-INCENP constructs from transfected HeLa cells, nocodazole arrest, collected 0 and 30 min after MPS1 inhibitor AZ3146 (metaphase, anaphase); Benzonase-treated lysate; Western blot. On the technique in general: In western blotting, separated proteins are transferred to a membrane and probed.

The target in assay [3] is Full-length GFP-INCENP (WT) (human) (UniProt Q9NQS7). The description is as above.
For assay [4], the target named is T2, GFP-INCENP 1–80 RRKKRR (RRKKRR to hexa-alanine mutant) (human) (UniProt Q9NQS7).
T2 sequence: T1 sequence with R65A, R66A, K67A, K68A, R69A, R70A
The assay is described as above.

Assay [5] addresses GFP-INCENP T59E (human) (UniProt Q9NQS7). The description is as above.
Assay [6] deals with GFP-MKLP2 RRSQR (penta-alanine substitution) mutant (human) (UniProt O95235). The assay can be described thus: co-IP; anti-GFP IP of GFP-MKLP2 constructs from transfected HeLa cells, nocodazole arrest, collected 0, 20 and 30 min after MPS1 inhibitor AZ3146; Western blot.
Assay [7] concerns the target GFP-MKLP2 WT (human) (UniProt O95235). The assay is described as above.
Assay [8] has as its target GFP-MKLP2 Δ690-705 (human) (UniProt O95235). Described as above.
Assay [9] has as its target GFP-MKLP2 Δ636-652 (human) (UniProt O95235). The assay is described as above.
Assay [10] has as its target GFP-MKLP2^535-718 (human) (UniProt O95235). The experiment in a line: co-IP; GFP IP from HeLa T-REx GFP-MKLP2^535-718 cells, doxycycline 18 h, nocodazole 18 h, forced into anaphase with 5 µM flavopiridol; Western blot.

Take “CPI80^RRKKRR (CPI80 with the INCENP RRKKRR-motif replaced with alanine residues) (from UniProt O15392 1-142; Q9NQS7 1-80; Q53HL2 10-109) (complex)”: the binding entry in assay [1] is recorded as “no binding”.
Regarding “MKLP2 (endogenous) (from UniProt O95235 1-890)”, the binding entry in assay [2] was “binds”; in assay [3], “binds”; in [4] it was “no binding”; in assay [5], “no binding”.
As for “chromosomal passenger complex (CPC), endogenous (from UniProt Q96GD4 1-344; Q9NQS7 1-918; O15392 1-142; Q53HL2 1-280)”, the binding entry in [6] is “binds”; in assay [7], “binds”; in assay [8], “binds”; in [9] it was “no binding”; in assay [10] it was “binds”.
